From PubChem BioAssay AID485344 (National Center for Advancing Translational Sciences (NCATS), 2010)
In all, about 340,000 compounds went through this assay and about 6,900 (2%) were called active. Cut-off read from the data, not from the text of the source: active = inhibition above about 30%; inactive = below that, where a call was filed. This is a selection; strong and weak results do not stand in their true shares. The source gives no active or inactive call for entries shown without one.
Note: 0% is about no effect.

What follows are molecules tested against D(2) dopamine receptor (Homo sapiens) (UniProt P14416) (assay: HTS Assay for Allosteric Antagonists of the Human D2 Dopamine Receptor: Primary Screen for Antagonists). Settings: HEK293 TREx D2 cells, calcium flux, dopamine EC80; at 10 µM; stronger effect = higher value.
UniProt P14416, sequence (P14416 whole entry, looked up): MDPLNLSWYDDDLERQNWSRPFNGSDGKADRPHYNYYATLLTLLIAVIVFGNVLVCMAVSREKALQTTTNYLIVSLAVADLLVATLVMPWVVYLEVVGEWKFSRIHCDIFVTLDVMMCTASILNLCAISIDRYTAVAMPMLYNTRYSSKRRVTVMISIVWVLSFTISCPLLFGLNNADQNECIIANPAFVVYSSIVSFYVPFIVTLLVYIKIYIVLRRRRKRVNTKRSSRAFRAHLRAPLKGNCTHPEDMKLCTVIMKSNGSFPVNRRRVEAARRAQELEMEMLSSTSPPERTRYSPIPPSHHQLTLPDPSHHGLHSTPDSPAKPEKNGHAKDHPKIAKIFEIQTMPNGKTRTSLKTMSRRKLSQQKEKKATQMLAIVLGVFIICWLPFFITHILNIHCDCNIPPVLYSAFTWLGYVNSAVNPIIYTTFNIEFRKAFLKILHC
Outline: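 Cells plated overnight at 30 C with tetracycline; no-wash calcium dye, 30–90 min RT; 10 s baseline; compound pinned; 180 s read; EC80 dopamine added; another 180 s read.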
With `COc1cccc(CN(Cc2ccco2)c2cnc(S(C)(=O)=O)nc2C(=O)Nc2cccc(Cl)c2C)c1` the inhibition was -1.68%.
`Cn1c(SCC(=O)N2CCCc3ccccc32)ncc(C(=O)Nc2ccc(Cl)cc2)c1=O` was tested, and the inhibition was 9.58%.
In the case of `CCc1nc2nc(C)cc(Nc3ccc(OC)cc3)n2n1`, the inhibition is reported as -2.54%.
For `CCCCOc1ccccc1Cn1c(=O)oc2ccc(C)cc21`, the inhibition was active: 31.4%.
Molecule `CS(=O)(=O)c1ncc(N(Cc2ccco2)Cc2ccco2)c(C(=O)Nc2ccccc2Br)n1` has an inhibition of 22.2%.
In the case of `Cc1ccc(-n2ncc(C(=O)NC3CCCC3)c2C2CCN(C(=O)OC(C)(C)C)CC2)c(C)c1`, the inhibition is reported as -6.88%.
For `CC1=C(C(=O)OCc2ccc(C)cc2)C(c2c(Cl)cccc2Cl)CC(=O)N1` (stereo not drawn), the inhibition was -3.55%.
Molecule `Cc1ccc(C)c(NS(=O)(=O)c2ccc3c4c(cccc24)C(=O)N3)c1` has an inhibition of 6.26%.
For `CNc1nc(Oc2ccc(=O)n(C)n2)nc(N2CCOCC2)n1`, the inhibition was 3.17%.
With `COc1cccc(Cn2nnc3c(=O)[nH]c(C4CCCN(C(=O)c5ccc(C)cc5)C4)nc32)c1` (stereo not drawn) the inhibition was 11.4%.
For `CCOc1cccc2sc(Nc3nc4ccc(NC(C)=O)cc4s3)nc12`, the inhibition was active: 30.8%.
With `Clc1ccc(CN2CCN(c3ncccn3)CC2)cc1` the inhibition was active: 84.9%.
`COc1ccc(OC)c(NC(=O)c2cc3c(s2)-c2ccccc2SC3)c1` was tested, and the inhibition was -9.36%.
`Cc1c(NS(=O)(=O)c2cccc(C(=O)O)c2)c(=O)n(-c2ccccc2)n1C` was tested, and the inhibition was 0.275%.
`COc1ccccc1-c1c(C)nn2c(N3CCN(c4cccc(Cl)c4)CC3)cc(C)nc12` gave an inhibition of 4.3%.
In the case of `O=C(CSc1nnc(CNC(=O)c2c(F)cccc2Cl)o1)Nc1ccccc1F`, the inhibition is reported as 5.82%.
For `Cc1ccc(OCCCCN2CCCC(C)C2)c([N+](=O)[O-])c1` (stereo not drawn), the inhibition was active: 90.8%.
`CCC(=O)N1c2ccccc2CC1C(=O)NCc1ccccc1C` (stereo not drawn) was tested, and the inhibition was 26.6%.
In the case of `O=C(Nc1cc(-c2nc3cc(Cl)ccc3o2)ccc1Cl)c1cccs1`, the inhibition is reported as -8.07%.
`CC1CCCC(C)N1C(=S)NCc1ccco1` (stereo not drawn) was tested, and the inhibition was active: 30.5%.
In the case of `C#CC(C)(CC)NC(=O)Cn1nnc(-c2ccc(OCc3ccccc3F)cc2)n1` (stereo not drawn), the inhibition is reported as -3.82%.
For `NC[C@@H]1O[C@H](C23CC4CC(CC(C4)C2)C3)Cc2c1ccc(O)c2O`, the inhibition was active: 65.8%.
`CCOc1ccccc1NC(=O)CC1C(=O)NCCN1C(=O)c1ccc(F)cc1` (stereo not drawn) was tested, and the inhibition was -0.541%.
For `COc1ccc(OC)c(Nc2nc3ccccc3n3c(C)nnc23)c1`, the inhibition was 4.48%.
In the case of `COc1cc(NC(=O)CSc2nc(C)c(C)c(C)n2)cc(OC)c1`, the inhibition is reported as active: 48.3%.
Work on `Cc1ccc(NC(=O)c2ncn(-c3ccccc3)n2)cc1Cl` yielded an inhibition of 10.2%.
With `Cc1nc(-n2nc(C)c(Cc3ccccc3Cl)c2C)sc1C(=O)N1CCCCC1C` (stereo not drawn) the inhibition was -3.85%.
Molecule `COc1ccc(-c2nc(C(=O)Nc3cccc(C(C)=O)c3)nn2-c2ccc(Cl)cc2)cc1` has an inhibition of 3.38%.
For `CCC(=O)Oc1ccc(C(=O)Nc2c[nH]c(=O)[nH]c2=O)cc1`, the inhibition was active: 34.6%.
With `Cc1ccc(NC(=O)CS(=O)(=O)c2nc(-c3ccc(C)cc3)cn2-c2ccc(C)cc2)cc1` the inhibition was 13.3%.
`CCCCN(C)CCNC(=O)c1cc(=O)[nH]c2ccc(S(=O)(=O)N3CCCCCC3)cc12` gave an inhibition of -11.7%.
Molecule `Cc1ccc(CNC(=O)c2cnc(N(C)C)nc2)cc1` has an inhibition of -1.14%.
`Cc1cc(NC(=O)c2ccc(-c3ccc(Cl)cc3)o2)cc(-c2nc3ncccc3o2)c1O` was tested, and the inhibition was 5.21%.
With `COCCNC(=O)C(=O)NCC(c1ccc2c(c1)OCO2)N1CCOCC1` (stereo not drawn) the inhibition was 24%.
`COC(=O)c1ccc(OCC(O)Cn2cnc3cc(C)c(C)cc32)cc1` (stereo not drawn) gave an inhibition of 6.35%.
In the case of `CCN(C(=O)CSc1ncc(S(=O)(=O)c2ccc(C)c(Cl)c2)c(=O)[nH]1)c1cccc(C)c1`, the inhibition is reported as -16.2%.
`COCCCNC(=O)c1c(NC(=O)c2nc(S(C)(=O)=O)ncc2Cl)sc2c1CCCC2` gave an inhibition of -8.41%.
In the case of `Cc1cc2ccccc2n1CCNC(=O)COc1ccccc1`, the inhibition is reported as active: 39%.
`Cc1cc(NC(=O)CCCn2c(C)c3cnn(-c4ccccc4)c(=O)c3c2C)ccc1Br` gave an inhibition of -9.99%.
`CCOc1ccccc1NC(=O)CN1C(=O)CC(c2ccco2)Sc2ccccc21` (stereo not drawn) was tested, and the inhibition was -1.57%.
With `Cc1cc(C)cc(C(=O)N(Cc2nc(-c3ccc(Cl)cc3)no2)C(C)C)c1` the inhibition was -9.16%.
`Cc1cccc(N(CC(=O)Nc2ccc(Br)cc2)S(C)(=O)=O)c1C` was tested, and the inhibition was 12.8%.
For `COc1ccc(C(=O)NCc2ccc3c(c2)CCN3C(=O)c2ccncc2)cc1`, the inhibition was -12.2%.
`COc1ccc(OC)c(NC(=O)c2c(NCc3ccc(C)o3)sc3c2CCC(C)C3)c1` (stereo not drawn) showed an inhibition of -2.01%.
`CC(C)c1ccc(S(=O)(=O)c2nnn3c2nc(NC2CCCC2)c2sccc23)cc1` showed an inhibition of -0.374%.
Molecule `Cc1ccc(CSCC(=O)N2CCN(c3ccc(F)cc3)CC2)cc1` has an inhibition of 16.1%.
`CC(=O)c1cccc(S(=O)(=O)NCCc2csc3nc(-c4ccc(F)cc4)nn23)c1` gave an inhibition of -9.23%.
With `Cc1nc(CC(=O)Nc2cccc(C)c2C)cs1` the inhibition was -16.3%.
With `CCc1nn2c(=O)c(S(=O)(=O)Nc3ccc(OC)c(Cl)c3)c(C)nc2s1` the inhibition was -7.21%.
`Cc1ccc(CSc2nc3ccc(NC(=O)C(C)C)cc3s2)cc1` gave an inhibition of 18.3%.
For `COc1cc(/C=C2\SC(c3ccc(C)cc3)=NC2=O)ccc1O`, the inhibition was active: 32.1%.
`CCN(Cc1ccccc1)C(=O)Cn1c(=O)n(Cc2ccccc2)c(=O)c2c1c1cc(OC)ccc1n2C` was tested, and the inhibition was -2.8%.
`COc1ccc(C(CC(=O)Nc2ccc(C)c(C)c2)N2Cc3ccccc3C2=O)cc1OC` (stereo not drawn) gave an inhibition of 8.15%.
For `CCOC(=O)C1CCCN(Cc2ccc(-c3ccccc3)cc2)C1` (stereo not drawn), the inhibition was active: 57.9%.
In the case of `COc1ccc2c(c1)-c1nc(NC(=O)c3cc(Cl)ccc3OC)sc1CC2`, the inhibition is reported as -7.18%.
In the case of `CCCCCn1cnc2c(=S)nc(N)[nH]c21`, the inhibition is reported as active: 48.6%.
`Cc1cc(OC(=O)c2cc(-c3ccc4c(c3)OCCO4)on2)ccc1Cl` was tested, and the inhibition was 13.6%.
`COc1ccccc1CNC(=O)CCn1c(=O)c2ccccc2n(CC(=O)Nc2ccc(C)cc2C)c1=O` was tested, and the inhibition was 8.33%.
`CN1c2ccccc2-c2nc(SCC(=O)Nc3ccccc3C(F)(F)F)ncc2S1(=O)=O` gave an inhibition of -4.41%.
For `CC(=O)c1c(C)oc2ccc(N(C(=O)Oc3ccccc3)S(=O)(=O)c3ccc(C(C)(C)C)cc3)cc12`, the inhibition was -2.22%.
`CCc1cccc(C)c1NC(=O)c1cc(C)nc2c1c(C)nn2-c1cccc(Cl)c1C` gave an inhibition of 16.8%.
`COc1ccc(C)cc1NC(=O)CN(c1cc(C(F)(F)F)ccc1Cl)S(C)(=O)=O` gave an inhibition of 15%.
Molecule `COc1cc(NC(=O)c2cc(Cl)c(OC)c(Cl)c2)ccc1NC(=O)c1cc2ccccc2o1` has an inhibition of 5.61%.
In the case of `COC(=O)c1cc(NC(=O)Cn2nc(C)n3cccc3c2=O)cc(C(=O)OC)c1`, the inhibition is reported as -20.5%.
`Cc1ccc(-c2c(C(=O)NCc3ccccc3)oc(=O)c3ccccc23)cc1` showed an inhibition of -5.36%.
`CCOC(=O)C1=C(CS(=O)(=O)c2ccc(Br)cc2)NC(=O)NC1c1ccccc1` (stereo not drawn) was tested, and the inhibition was 1.3%.
With `Cc1ccccc1CNC(=O)c1ccc(-c2nc(CS(=O)(=O)c3ccccc3)c(C)o2)cc1` the inhibition was 4.41%.
`CCCCN(C)C(=O)C(Cc1ccccc1)NS(=O)(=O)c1ccc2c(c1)c(=O)n(C)c(=O)n2C` (stereo not drawn) showed an inhibition of 1.14%.
`COc1ccc(-c2nnc(SCC(=O)Oc3c(C)cccc3C)o2)cc1OC` gave an inhibition of 18.1%.
With `Cc1oc(-c2cccc(Cl)c2)nc1CN1CCCC(C(=O)NCc2ccc(F)cc2)C1` (stereo not drawn) the inhibition was 11.7%.
`CC(C)OCCCNC(=O)c1ccc2c(=O)n(CCc3ccccc3)c(=O)[nH]c2c1` showed an inhibition of 11.5%.
Work on `C=CCc1cccc2cc(C(=O)Nc3cccc(Cl)c3)c(=O)oc12` yielded an inhibition of 3.45%.
`CCOC(=O)c1sc2ccccc2c1S(=O)(=O)Nc1cccc(C(F)(F)F)c1` was tested, and the inhibition was 2.31%.
`Cc1cccc(C(=O)NCCc2sc(-c3ccccc3)nc2C)c1` was tested, and the inhibition was 21.3%.
`Cc1cn(C)c(CC(=O)Nc2cccc(Cl)c2C)c1C(=O)O` gave an inhibition of 26.1%.
With `CCc1ccc(NC(=O)c2ccc(F)c(S(=O)(=O)N3CCC(C)CC3)c2)cc1` the inhibition was 9.01%.
Work on `Cc1ccc(C)c(Cn2nnc(C(=O)NCc3ccc(Cl)cc3Cl)c2N)c1` yielded an inhibition of -7.93%.
Molecule `COc1cc2c(cc1NS(=O)(=O)c1cccc(C#N)c1)n(C)c(=O)n2C` has an inhibition of -11.6%.
With `Cc1cc(C)cc(NC(=O)CN2C(=O)c3ccccc3Sc3ccc(C(=O)N4CCOCC4)cc32)c1` the inhibition was 5.05%.
Work on `COc1ccc(N(CC(=O)NCc2ccc(F)cc2)S(=O)(=O)c2c(C)n[nH]c2C)cc1` yielded an inhibition of -5.81%.
With `COc1ccc(OCCCn2c(=O)oc3ccc(C)cc32)cc1` the inhibition was 8.73%.
`CCOc1ccccc1C(=O)Nc1c(NC)c2ccccc2oc1=O` showed an inhibition of -0.0046%.
Work on `O=C(NCc1cccc(F)c1)C1=Cc2cc(Br)ccc2OC1` yielded an inhibition of -17.8%.
`Cc1ccc(-n2ccnc(NCc3ccccc3)c2=O)cc1C` showed an inhibition of 7.95%.
Work on `O=C(Nc1cc(C(F)(F)F)ccc1Cl)c1cc2nc(-c3ccc4c(c3)OCO4)cc(C(F)(F)F)n2n1` yielded an inhibition of -4.26%.
Work on `Cn1c(=O)oc2cc(S(=O)(=O)N3CCCC(C(=O)Nc4ccc(Br)cc4F)C3)ccc21` (stereo not drawn) yielded an inhibition of 11.1%.
In the case of `CCc1ccccc1NC(=O)CN1C(=O)CCc2cc(S(=O)(=O)N3CCCCC3)ccc21`, the inhibition is reported as 7.75%.
With `Cc1ccc(SCCOCCN2CCc3ccccc3C2)cc1` the inhibition was active: 75%.
Molecule `Cc1ccc(CNC(=O)c2ccc(CSCc3ccc(Cl)cc3)o2)cc1` has an inhibition of 18.6%.
`O=C(/C=C/c1ccco1)NCCc1ccccc1` was tested, and the inhibition was active: 31.7%.
In the case of `CCCCNS(=O)(=O)c1ccc2nc(NC(=O)c3cccnc3)sc2c1`, the inhibition is reported as 2.58%.
`COc1ccc(N2CC(NC(=O)c3ccc(S(=O)(=O)N4CCCC4)cc3)CC2=O)cc1` (stereo not drawn) was tested, and the inhibition was 11.6%.
For `CCOC(=O)c1ccc(NC(=O)C(CC)Sc2nc3ncccc3[nH]2)cc1` (stereo not drawn), the inhibition was -11.2%.
With `COc1ccc(-n2nc(C(=O)N3CCN(c4ccccc4OC)CC3)c3c4ccccc4n(C)c3c2=O)cc1` the inhibition was -5.87%.
`c1ccc(SCCOCCN2CCc3ccccc3C2)cc1` was tested, and the inhibition was active: 75%.
With `COc1cccc(N2CC(NC(=O)/C=C\c3ccc4c(c3)OCO4)CC2=O)c1` (stereo not drawn) the inhibition was 5.58%.
Molecule `CCC(Sc1nnc(-c2ccc(OC)cc2)c(-c2ccc(OC)cc2)n1)C(=O)NC1CCCCC1` (stereo not drawn) has an inhibition of 8.23%.
Molecule `CCn1c(C(=O)N2CCC(C(=O)NCCc3ccccc3)CC2)cc2sccc21` has an inhibition of 3.85%.
